Several values for one entry are separate records, joined by “and”; a condition that tells them apart may be missing. Identical values can stand only once. The campaign covered roughly 420,000 compounds. About 64,000 (15%) were called active. The shares of active, inactive and inconclusive entries below differ from those in the screen. Calls come from the whole dose curve; as a rule, active = well fitted inhibition curve with a large enough effect; inconclusive = small, poorly fitted or top-dose-only effect; inactive = flat fitted curve, though single readings scatter. Potencies of inconclusive entries are left out as doubtful fits.
Assay: qHTS for Inhibitors of human tyrosyl-DNA phosphodiesterase 1 (TDP1): qHTS in cells in absence of CPT; note: nearly all actives have a fitted effect of over 55% in size
Settings: DT40 Tdp1-/- hTDP1 cells, no CPT, ATP luminescence, 48 h; activity change, negative = growth inhibition: at 46.2 µM (top of the series) unless noted
Procedure, shortened: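 Chicken DT40 Tdp1-/- cells stably complemented with human TDP1 were seeded at 400 cells/well with DMSO in place of 20 nM camptothecin. After compound pinning, cells grew at least 48 hr at 37 °C; viability read by CellTiter-Glo luminescence.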
% is set by controls: 0 for no effect and ±100 for the full control effect; potency is the fitted concentration of half-maximal effect; tags give direction and shape of the fitted curve.

Row | SMILES | Potency | activity change, negative = growth inhibition
1 | COc1ccc(NC(=O)C2=C(C)Nc3nc(SCc4ccccc4)nn3C2c2cc(OC)ccc2OC)cc1 (centres undefined) | inconclusive [inhibitor, single point] | 
2 | COc1ccc(C(=O)NNC(=S)NC(=O)c2ccco2)cc1 | active: 8.2 µM | 
3 | COc1ccc(-n2c(SC)nc3sc4c(c3c2=O)CCN(C)C4)cc1 | active: 11.6 µM | 
4 | Cc1c(C)n(C)c2ccc(C(=O)NCCCN3CCCCC3)cc12 | inconclusive [inhibitor, partial curve] | 
5 | CCC(C)NC(=O)Cn1cc(S(=O)(=O)N2CCN(c3ccccc3F)CC2)c2ccccc2c1=O (centres undefined) | inconclusive [inhibitor, partial curve] | 
6 | COc1cc(NC(=O)c2nccn2C)cc(C(=O)Nc2cccc(C(F)(F)F)c2)c1 | active: 6.51 µM | 
7 | CCCC(=O)Nc1ccc(C(=O)NNC(=O)c2ccco2)cc1 |  | inactive: -1.27%
8 | COc1ccc(S(=O)(=O)NC(=O)C2(C)CCN2C(=O)C2(c3ccc(Cl)cc3)CCC2)cc1 (centres undefined) |  | inactive: -7.58%
9 | Cc1sc2nc(C3CCCCC3)nc(SCC(=O)N3CC(=O)Nc4ccccc43)c2c1C | inconclusive [inhibitor, single point] | 
10 | CC(C)Cc1ccc(CN2CCCC(NC(=O)c3ccoc3)C2)cc1 (centres undefined) | active: 13 µM | 
11 | COCCc1nn2c(=O)cc(COC(=O)c3ccc(C(C)(C)C)cc3)nc2s1 | inconclusive [inhibitor, single point] | 
12 | Cc1ccc(Cn2ccc(NC(=O)c3cc(-c4ccc(Cl)c(Cl)c4)on3)n2)cc1 | inconclusive [inhibitor, single point] | 
13 | Cc1ccc(S(=O)(=O)N2CCN(C(=O)COC(=O)c3cccc(Cl)c3)CC2)c(C)c1 | inconclusive [inhibitor, single point] | 
14 | COC(=O)c1cc(OC)c(OC)cc1NCC(=O)Nc1ccc(C)cc1 |  | inactive: -11.2%
15 | Cc1ccc(Nc2nc(N/N=C/c3c[nH]c4ccccc34)nc(N3CCOCC3)n2)cc1 | active: 8.2 µM | 
16 | Cc1ccn2c(=O)nc(SCC(=O)N3CCC(Cc4ccccc4)CC3)nc2c1 | inconclusive [inhibitor, single point] | 
17 | CCCc1cc(C(=O)NNC(=S)NC2CCCCC2)cs1 | inconclusive [inhibitor, single point] | 
18 | OCC1(CCc2ccccc2)CCN(Cc2ccc(OC(F)F)cc2)CC1 | inconclusive [inhibitor, single point] | 
19 | Cc1nnc(SCC(=O)NCc2ccccc2F)c2nn(-c3ccc(Cl)cc3)c(C)c12 | active: 8.2 µM | 
20 | CCOC(=O)c1c(C2CC2)csc1NC(=O)COC(=O)c1cc(OC)c(OC)cc1[N+](=O)[O-] | active: 20.6 µM | 
21 | Cc1cc(NC(=O)C2CCCCC2)n(-c2nc3ccccc3[nH]2)n1 | active: 16.4 µM | 
22 | CCCN1C(=O)C(O)(CC(=O)c2cccc(OC)c2)c2ccccc21 (centres undefined) | active: 3.26 µM | 
23 | CCOc1cc(S(=O)(=O)NCc2cccnc2)c(C)cc1C |  | inactive: -8.01%
24 | CSc1ccccc1NC(=O)C1CCCO1 (centres undefined) |  | inconclusive: -31% [inhibitor]
25 | O=C(COc1ccccc1Cl)Nc1ccc(C(=O)N2CCCCC2)cc1 | inconclusive [inhibitor, single point] | 

Row | SMILES | Potency | activity change, negative = growth inhibition
26 | Cc1ccc(-c2nc(SCc3ccc(Br)cc3)n3[nH]c(=O)cc3n2)cc1 | inconclusive [inhibitor, single point] | 
27 | CC(C)c1c(C(=O)NCC(C)(C)N2CCOCC2)cnn1-c1nccc(-c2ccccc2F)n1 | inconclusive [inhibitor, single point] | 
28 | CN1CC(=O)N(CC(=O)Nc2ccc(Cl)c(C(F)(F)F)c2)c2ccccc2C1=O | inconclusive [inhibitor, full curve, poor fit] | 
29 | COc1ccc(OCCOCCOc2ccc(C)cc2[N+](=O)[O-])cc1 |  | inactive: -29.1%
30 | Nc1cc(N)nc(SCC(=O)NC2CCCCCCC2)n1 |  | inactive: 17.1%
31 | Fc1cccc(Cl)c1Cn1nnc2c(-n3ccnc3)ncnc21 | inconclusive [inhibitor, single point] | 
32 | Cc1cccc2cc(CN(CCCO)C(=O)Nc3ccc(Cl)cc3)c(=O)[nH]c12 | active: 20.6 µM | 
33 | O=C(N/N=C/c1ccc[nH]1)c1ccccc1OCc1ccccc1Cl | inconclusive [inhibitor, single point] | 
34 | Cc1ccc(S(=O)(=O)c2nc(-c3ccc(Cl)cc3)oc2N2CCCCCC2)cc1 | inconclusive [inhibitor, single point] | 
35 | CN=C1SC(CC(=O)Nc2ccccc2F)C(=O)N1/N=C/c1ccc(O)c(OC)c1 (centres undefined) | active: 13 µM | 
36 | COc1cc(NC(=O)[C@@H](NC(=O)N2CCn3c2nc2ccccc23)C(C)C)cc(OC)c1 |  | inactive: -12.8%
37 | O=C(Cc1cccs1)N1CCN(S(=O)(=O)c2cc(Cl)ccc2Cl)CC1 |  | inactive: 3.39%
38 | N#Cc1c(N)oc(-c2ccc3c(c2)OCO3)c1-c1ccc2c(c1)OCO2 |  | inactive: -6.69%
39 | COc1ccc(CN2CCC(=O)N([C@H](CO)Cc3ccccc3)CC2)cc1OC |  | inconclusive: -39% [inhibitor]
40 | CC(C)(C)OC(=O)N1CCC(Cc2cc(-c3cccnc3)no2)(C(=O)O)CC1 |  | inactive: -0.871%
41 | COc1ccccc1CNC(=O)c1cccc(Nc2nc3ccccc3n3nnnc23)c1 | inconclusive [inhibitor, partial curve] | 
42 | CCOC(=O)c1ccc(NC(=S)N2CCN(CCN=CC3=C(O)CC(c4ccccc4)CC3=O)CC2)cc1 (centres undefined) | inconclusive [inhibitor, single point] | 
43 | COC(=O)c1ccc2nc(-c3cccc(Cl)c3)c(Cc3cccc(F)c3)n2c1 | active: 9.2 µM | 
44 | O=C(COC(=O)c1ccc(F)c(S(=O)(=O)N2CCOCC2)c1)NCc1ccc(F)cc1 |  | inactive: -9.62%
45 | O=C(CC1SC(N2CCCCC2)=NC1=O)Nc1cccc(C(=O)Nc2ncccc2O)c1 (centres undefined) | inconclusive [inhibitor, single point] | 
46 | CSCCCNC(=O)c1ccc(OC2CCN(CCc3ccccc3)CC2)cc1 | inconclusive [inhibitor, single point] | 
47 | O=C(Nc1cccc(C(F)(F)F)c1)c1ccc(Cn2cc(Br)cn2)o1 | inconclusive [inhibitor, single point] | 
48 | CC(C)c1nc2sc3c(SCC(N)=O)ncnc3c2c2c1CCC2 |  | inactive: -8.03%
49 | Cc1ccc(NS(=O)(=O)c2ccc(-n3cccn3)cc2)c(Cl)c1 | inconclusive [inhibitor, single point] | 
50 | CC1CCCN(C(=O)COC(=O)CNC(=O)c2sc3ccccc3c2Cl)C1 (centres undefined) |  | inactive: 3.32%

Row | SMILES | Potency | activity change, negative = growth inhibition
51 | O=C1c2cccc(-c3ccc(C(F)(F)F)cc3)c2C2CCCCN12 (centres undefined) | inconclusive [inhibitor, single point] | 
52 | O=S(=O)(c1ccc(Cl)cc1)N1CCN(C(=S)Nc2ccc(F)c(Cl)c2)CC1 | inconclusive [inhibitor, partial curve, poor fit] | 
53 | COc1ccccc1N1CCN(C(=O)c2cn(Cc3ccccc3)nc2-c2cccnc2)CC1 |  | inactive: -15.4%
54 | CCC1CN(C(=O)N2CCC(C(=O)NCc3cccs3)CC2)c2cc(C)ccc2O1 (centres undefined) | active: 23.1 µM | 
55 | Cc1cc2[nH]ncc2cc1NC(N)=S | inconclusive [inhibitor, single point] | 
56 | CCN1CCN(C(=S)Nc2cc(S(=O)(=O)N(CC)CC)ccc2C)CC1 | inconclusive [inhibitor, partial curve] | 
57 | Cc1ccccc1Nc1c2c(nc3nncn13)CCC2 | inconclusive [inhibitor, single point] | 
58 | CCOc1ccccc1NCc1cc(=O)oc2cc(C)c(O)cc12 |  | inactive: -14.5%
59 | COc1ccc(SCCN2CC[C@@H](C(C)(C)C)CCC2=O)cc1 | active: 15.8 µM | 
60 | CC1(C)Cc2c(c(N3CCOCC3)nc3sc(C(=O)Nc4ccccc4)c(N)c23)CO1 | inconclusive [inhibitor, full curve, poor fit] | 
61 | O=C(COc1ccc(F)cc1)Nc1ccc2nc(SCc3ccccc3)sc2c1 | inconclusive [inhibitor, single point] | 
62 | O=C(CSc1n[nH]c(=O)n1C1CC1)NCc1ccccc1 |  | inactive: 18.4%
63 | c1ccc(C2CNCCc3ccccc32)cc1 (centres undefined) |  | inactive: -14.2%
64 | CCOc1ccc(-c2cc(C(=O)NCc3ccccc3)c3c(-c4ccc(CC)cc4)[nH]nc3n2)cc1 | inconclusive [inhibitor, partial curve] | 
65 | COc1ccnc(-n2cccc2C=O)c1C#N |  | inactive: -1.27%
66 | O=C(CC1(O)C(=O)N(CCc2ccccc2)c2ccc(Br)cc21)c1ccccc1O (centres undefined) | active: 5.8 µM | 
67 | CC1=CC(=C(c2ccc(N)cc2)c2ccc(N)cc2)C=CC1=N | active: 2 µM and active: 2.99 µM | 
68 | Cc1ccccc1NC(=O)CC(C)S(=O)(=O)c1ccc2c(c1)NC(=O)CO2 (centres undefined) |  | inactive: 8.48%
69 | CC(C)(C)C(=O)Nc1c(C(=O)N2CCN(c3ccc(F)cc3)CC2)oc2ccccc12 | active: 14.6 µM | 
70 | Nc1ccn([C@@H]2O[C@H](CNS(=O)(=O)c3cc4ccccc4s3)[C@@H](O)[C@H]2O)c(=O)n1 |  | inactive: -4.16%
71 | CC(=O)CC1(O)C(=O)Nc2ccccc21 (centres undefined) |  | inactive: 11.6%
72 | O=C(/C=C/c1ccc(OC(F)F)cc1)Nc1cccc(S(=O)(=O)NC2=NCCCCC2)c1 | inconclusive [inhibitor, single point] | 
73 | Cc1ccccc1-c1nnn(CC(=O)N(C)CC(=O)Nc2ccccc2C(F)(F)F)n1 |  | inactive: -27.8%
74 | CCn1c(SCC(=O)N/N=C/C(C)=C\c2ccco2)nnc1-c1ccccc1 | inconclusive [inhibitor, single point] | 

Reference: PubChem BioAssay AID686978 (National Center for Advancing Translational Sciences (NCATS), 2013)
